# The supplement of paper PMC11880418
# Counter-ions that a name gives are not always drawn. The list shows a part of the results. The data scatter; read single values as rough.
# What was measured:
# Test in all cases: ALDHbr (CSC) cell proportion score relative to DMSO vehicle (ratio to DMSO); breast (SUM159) / gastric (MKN45) / pancreatic (PANC1) / colon cancer lines; ALDHbr cells have high ALDH activity and are rich in cancer stem cells (CSC); higher = more CSC (ALDHbr) cells remaining
# Details in all cases: 10 µM; 72 h
# MKN45 = tested on: MKN45
# PANC1 = tested on: PANC1
# SUM159 = tested on: SUM159
# T84 = tested on: T84
# 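Note: High-content imaging of ALDEFLUOR-stained cells with Hoechst-labelled nuclei in 384-well plates, triplicate wells, scored as Z-score against 0.1% DMSO vehicle, negative meaning fewer ALDHbr cells.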
Compound,ALDHbr (MKN45),ALDHbr (PANC1),ALDHbr (SUM159),ALDHbr (T84)
CN(C)CCN(Cc1ccccc1)c1ccccn1 [Tripelennamine hydrochloride],1.04,1.04,0.947,0.814
CC(=O)OCC(=O)[C@@]1(O)CC[C@H]2[C@@H]3CCC4=CC(=O)CC[C@]4(C)[C@H]3[C@@H](O)C[C@@]21C [Cortisol acetate],0.907,0.598,0.989,1.04
COc1cc(OC)c(C(=O)CCCN2CCCC2)c(OC)c1 [Buflomedil hydrochloride],0.872,0.898,1.04,1.03
CN(C)CC/C=C1/c2ccccc2COc2ccc(CC(=O)O)cc21 [Olopatadine hydrochloride],1.19,0.922,0.849,0.816
COc1ccc(NS(=O)(=O)c2ccc(N)cc2)nn1 [Sulfamethoxypyridazine],0.869,1.05,1.11,1.06
CSc1nc2cc(Cl)c(Oc3cccc(Cl)c3Cl)cc2[nH]1 [Triclabendazole],0.809,1.06,0.755,0.887
CN(C)[C@@H]1C(=O)C(C(N)=O)=C(O)[C@@]2(O)C(=O)C3=C(O)c4c(O)ccc(Cl)c4[C@@H](O)[C@H]3C[C@@H]12 [Demeclocycline hydrochloride],0.929,0.49,0.766,0.905
CC(C)(O)c1ccccc1CC[C@@H](SCC1(CC(=O)O)CC1)c1cccc(/C=C/c2ccc3ccc(Cl)cc3n2)c1 [Montelukast],1.09,0.959,1.03,0.772
CN1CCC(=C2c3ccccc3CC(=O)c3sccc32)CC1 [Ketotifen fumarate],1.3,1.13,0.777,0.886
CCN1CCN(C(=O)N[C@@H](C(=O)N[C@@H]2C(=O)N3C(C(=O)O)=C(CSc4nnnn4C)CS[C@H]23)c2ccc(O)cc2)C(=O)C1=O [Cefoperazone dihydrate],1.13,0.916,0.87,1.07
Cc1ccc(/C(=C\CN2CCCC2)c2ccccn2)cc1 [Triprolidine hydrochloride],1.15,0.833,1.02,0.914
Cc1c(C)c2c(c(C)c1O)CCC(C)(C(=O)O)O2 (stereo unspecified) [Trolox],0.99,1.04,0.998,1.09
CCCCc1oc2ccccc2c1C(=O)c1cc(I)c(OCCN(CC)CC)c(I)c1 [Amiodarone hydrochloride],0.359,1.25,0.38,0.198
CC[C@@H]1C(=O)OC[C@@H]1Cc1cncn1C [Pilocarpine nitrate],1.14,0.988,0.97,0.99
C[N+](C)(C)CCCCCC[N+](C)(C)C [Hexamethonium dibromide dihydrate],0.925,0.937,1.11,0.961
NCc1ccccc1CC(=O)N[C@@H]1C(=O)N2C(C(=O)O)=C(CSc3nnnn3CC(=O)O)CS[C@H]12 [Ceforanide],1.16,0.967,0.707,0.919
CC(C)/N=c1\cc2n(-c3ccc(Cl)cc3)c3ccccc3nc-2cc1Nc1ccc(Cl)cc1 [Clofazimine],0.427,0.515,0.873,0.0833
CCCCNC(=O)NS(=O)(=O)c1ccc(C)cc1 [Tolbutamide],1.07,0.881,0.918,0.849
CC(=O)N(CC(C)C(=O)O)c1c(I)cc(I)c(N)c1I (stereo unspecified) [Iocetamic acid],0.799,0.883,0.784,0.829
CCCN1CCCC[C@H]1C(=O)Nc1c(C)cccc1C [Ropivacaine hydrochloride],1.01,0.936,0.787,0.944
Cc1ccccc1C(OCCN(C)C)c1ccccc1 (stereo unspecified) [Orphenadrine hydrochloride],1.28,1.04,0.812,0.888
CCC(=O)O[C@]1(C(=O)CCl)[C@@H](C)C[C@H]2[C@@H]3CCC4=CC(=O)C=C[C@]4(C)[C@@]3(F)[C@@H](O)C[C@@]21C [Clobetasol propionate],0.855,0.669,1.23,0.763
COc1nc(N)nc2c1ncn2[C@@H]1O[C@H](CO)[C@@H](O)[C@@H]1O [Nelarabine],0.727,1.48,1.93,0.916
CC[C@H]1OC(=O)[C@H](C)[C@@H](O[C@H]2C[C@@](C)(OC)[C@@H](O)[C@H](C)O2)[C@H](C)[C@@H](O[C@@H]2O[C@H](C)C[C@H](N(C)C)[C@H]2O)[C@](C)(O)C[C@@H](C)/C(=N\OCOCCOC)[C@H](C)[C@@H](O)[C@]1(C)O [Roxithromycin],0.973,0.976,0.994,0.915
